Experimental data reported in PubChem BioAssay AID651820 (National Center for Advancing Translational Sciences (NCATS), 2012).
About 12,000 (3.5%) of roughly 340,000 compounds were called active. The inconclusive results got no clear call from the source; some entries with a clear call stand among them for comparison. Calls come from the whole dose curve; as a rule, active = well fitted inhibition curve with a large enough effect; inconclusive = small, poorly fitted or top-dose-only effect, or another doubt; inactive = no such curve, though single readings can be large or run the other way. No potency is given beside an inconclusive call; the fits are too rough. Some structures have more than one record in an assay (separate samples or runs), and their calls can disagree.
% is set by controls: 0 for no effect and ±100 for the full control effect; potency is the fitted concentration of half-maximal effect; tags give direction and shape of the fitted curve.

Test: qHTS Assay for Inhibitors of Hepatitis C Virus (HCV)
Conditions: Huh7.5.1 HCVcc-Cre (HCVcc is cell-culture hepatitis C virus) infection, luciferase reporter, 44 h; activity change, negative = inhibition: at 41.8 µM (top of the series) unless noted
Method in brief: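 HCVcc-Cre virus at an moi near 0.5 was added right after compound to cells cultured 4 h from seeding (1,000 cells/well). Luciferase activity was determined 44 h later, 15 min after substrate addition at RT.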
For `Oc1ccc(Nc2nc(N3CCCC3)c3ccccc3n2)cc1`, the Potency was inconclusive [inhibitor, single point]. For `Cc1nc(-c2cccc(NC(=O)C3CCCCC3)c2)cs1`, the Potency was inconclusive [inhibitor, single point]. With `ClCCNc1nc2ccc(Cl)cc2[nH]1` the “activity change, negative = inhibition” value was inactive: -26.2%. For `COc1ccc(C(c2nnnn2CCc2ccccc2)N2CCN(C3CCCC3)CC2)cc1` (stereo not given), the Potency was inconclusive [inhibitor, single point]. For `CCOc1cc(N2CCOCC2)c(OCC)cc1NC(=O)c1nn(CC)c(=O)c2ccccc12`, the Potency was inconclusive [inhibitor, partial curve]. With `CC1=CC(C)C(/C=N/N=C(N)N)C(C)C1` (stereo not given) the Potency was inconclusive [inhibitor, single point]. In the case of `Cc1ccccc1NC(=O)c1ccc(N/N=C/c2ccccc2O)c([N+](=O)[O-])c1`, the “activity change, negative = inhibition” value is reported as inactive: -26.3%. With `Cc1cccnc1NC(=O)CNC(=O)C12CC3CC(CC(Cl)(C3)C1)C2` the Potency was inconclusive [inhibitor, single point]. With `O=C(c1cccc([N+](=O)[O-])c1)N1CCc2ccccc21` the “activity change, negative = inhibition” value was inactive: -7.87%. In the case of `O=C(NC1CCN(Cc2ccccc2)CC1)c1ccccc1OCc1ccccc1Cl`, the Potency is reported as inconclusive [inhibitor, partial curve]. For `Cc1cc(C)c(C)c(OCCOCCNCc2ccccc2)c1`, the Potency was inconclusive [inhibitor, partial curve, poor fit]. With `C/C(=N/NC(N)=S)c1ccc(Br)s1` the Potency was inconclusive [inhibitor, single point]. With `CCS(=O)(=O)c1ccc2oc(SCC(=O)N3CCCCC3)nc2c1` the Potency was inconclusive [inhibitor, single point]. With `COc1cc(C(=O)Nc2ccc(S(=O)(=O)NC(C)(C)C)cc2)cc(OC)c1OC` the Potency was active: 12.6 µM. In the case of `CCOC(=O)c1cc2sc(C)cc2n1CC(=O)Nc1ccc2c(c1)OCCO2`, the Potency is reported as inconclusive [inhibitor, partial curve]. In the case of `Oc1ccccc1N1CCN(c2ncnc3scc(-c4ccccc4)c23)CC1`, the Potency is reported as inconclusive [inhibitor, partial curve]. For `Cc1ccccc1NC(=O)c1cccc(N2C(=O)C3CCCCC3C2=O)c1` (stereo not given), the Potency was inconclusive [inhibitor, single point]. For `CCOc1ccc(NC(=O)c2ccc(Cl)c(NC(=O)c3ccco3)c2)cc1`, the Potency was inconclusive [inhibitor, single point]. In the case of `Cc1c(Cl)c([N+](=O)[O-])nn1CCCC(=O)Nc1sc2c(c1C#N)CCC2`, the Potency is reported as inconclusive [inhibitor, full curve, poor fit]. For `CC(O)CNc1nc2ccccc2n1-c1ncnc2sc3c(c12)CCC3` (stereo not given), the Potency was inconclusive [inhibitor, partial curve]. In the case of `COc1ccccc1N(CC(=O)NCCSCc1ccccc1Cl)S(C)(=O)=O`, the Potency is reported as inconclusive [inhibitor, single point]. With `COc1ccc(Cl)cc1C(=O)NNC(=O)COC(=O)c1cccs1` the “activity change, negative = inhibition” value was inactive: 7.09%. In the case of `O=C(CSc1cccc[n+]1[O-])c1ccccc1Br`, the “activity change, negative = inhibition” value is reported as inactive: 32.9%. In the case of `O=C(CO/N=C1\CCCc2nonc21)Nc1ccc(Br)cc1`, the Potency is reported as inconclusive [inhibitor, single point]. With `Cc1ccc(-c2cc(C(F)(F)F)n3nc(C(=O)NCCCn4ccnc4)cc3n2)cc1C` the Potency was active: 5.01 µM. With `CCC(=O)Nc1cccc(-c2cnc3ccccc3n2)c1` the Potency was inconclusive [inhibitor, single point]. With `COc1ccc(C(=O)COC(=O)c2n[nH]c3ccccc23)c(OC)c1` the Potency was inconclusive [inhibitor, full curve, poor fit]. For `COCCNC(=O)c1c(N)n(CCCn2ccnc2)c2nc3ccccc3nc12`, the “activity change, negative = inhibition” value was inactive: -29.9%. In the case of `CC(=O)c1cc(-c2ccc(F)cc2)n(CCC(=O)Nc2cc(C)[nH]n2)c1C`, the Potency is reported as inconclusive [inhibitor, partial curve]. For `Cc1cc(C)c2sc(N(CCN(C)C)C(=O)c3ccc4ccccc4c3)nc2c1`, the Potency was inconclusive [inhibitor, single point]. For `CN(C)c1ccc(C(CNC(=O)c2ccc(F)cc2)c2c[nH]c3ccccc23)cc1` (stereo not given), the Potency was inconclusive [inhibitor, single point]. In the case of `O=C(c1cccc(C(F)(F)F)c1)C1CCCN(Cc2cccc(OCCO)c2)C1` (stereo not given), the Potency is reported as inconclusive [inhibitor, partial curve]. With `Cc1cc2nc(C3CCCN(C(=S)Nc4ccccc4C)C3)[nH]c2cc1C` (stereo not given) the Potency was active: 10 µM. In the case of `CC1CCCC(C)N1C(=O)COC(=O)c1cccc(S(=O)(=O)N(C)c2ccccc2)c1` (stereo not given), the Potency is reported as inconclusive [inhibitor, single point]. With `CCOc1ccc(/C=N/NC(=O)c2cc3ccccc3cc2OC)cc1` the Potency was inconclusive [inhibitor, partial curve]. With `c1ccc2c(-c3cc(C4CCNCC4)[nH]n3)cccc2c1` the Potency was inconclusive [inhibitor, single point]. In the case of `CC1CC1C(=O)Nc1nc(-c2ccc(Cl)s2)cs1` (stereo not given), the Potency is reported as inconclusive [inhibitor, single point]. In the case of `CCc1ccc(C(=O)CSc2ncn[nH]2)cc1`, the “activity change, negative = inhibition” value is reported as inactive: 19.9%. In the case of `CCOc1ccc(NC(=S)N2CCc3cc(OC)c(OC)cc3C2COc2ccc3c(C)cc(=O)oc3c2)cc1` (stereo not given), the Potency is reported as inconclusive [inhibitor, partial curve]. For `Nn1c(SCC(=O)Nc2ccccc2Oc2ccccc2)nnc1C1CC1`, the Potency was inconclusive [inhibitor, single point]. For `O=[N+]([O-])c1cc(Cl)ccc1NCCNc1ncc(C(F)(F)F)cc1Cl`, the Potency was inconclusive [inhibitor, single point]. For `O=C(c1cc2c(=O)n3ccccc3nc2s1)N1CCN(Cc2ccccc2)CC1`, the “activity change, negative = inhibition” value was inactive: 1.22%. For `Cc1ccc(C)c(SCC(=O)Nc2cc(C)nn2-c2ccc(F)cc2)c1`, the Potency was inconclusive [inhibitor, partial curve]. With `COc1ccc(C(=O)O/N=C(\N)Cc2ccc(Cl)cc2)cc1OC` the Potency was active: 31.6 µM. With `O=C(Nc1cccc(S(=O)(=O)N2CCCC2)c1)c1cc(S(=O)(=O)N2CCOCC2)ccc1F` the “activity change, negative = inhibition” value was inactive: -23.6%. For `COc1cc(/C=C/C(=O)Nc2ccc(C(C)=O)cc2)cc(OC)c1OC`, the Potency was inconclusive [inhibitor, partial curve]. In the case of `O=C(COc1coc(CN2CCN(c3ccccc3)CC2)cc1=O)Nc1ccc(F)cc1`, the Potency is reported as inconclusive [inhibitor, partial curve]. For `Cc1cc(=O)oc2ccc(OCc3ccccc3)cc12`, the Potency was inconclusive [inhibitor, single point]. For `COc1ccccc1CSc1nc2c(c(=O)n(C)c(=O)n2C)n1C`, the “activity change, negative = inhibition” value was inactive: -4.5%. With `CCN(C[C@H]1N[C@@](Cc2ccccc2)(C(=O)OC)[C@H]2C(=O)N(Cc3ccccc3)C(=O)[C@@H]12)S(=O)(=O)c1ccc(C(C)(C)C)cc1` the Potency was inconclusive [inhibitor, full curve]. With `COCCNC(=O)C(=O)Nc1ccc2c(c1)N(S(=O)(=O)c1cccs1)CCC2` the Potency was inconclusive [inhibitor, full curve]. In the case of `Cc1cccc(NC(=O)C2CCCN(c3cnccn3)C2)c1` (stereo not given), the Potency is reported as inconclusive [inhibitor, single point]. With `Cc1ccc(S(=O)(=O)N2CCCc3ccccc32)cc1C` the “activity change, negative = inhibition” value was inactive: 4.74%. For `Cc1cc(NCCC(C)C)n2nc(C)c(-c3ccccc3)c2n1`, the Potency was active: 8.91 µM. In the case of `O=C(CCN1C(=O)C2C3C=CC(C3)C2C1=O)N1CCN(c2ccc([N+](=O)[O-])cc2)CC1` (stereo not given), the Potency is reported as inconclusive [inhibitor, single point]. For `COc1ccc(C(=O)C[n+]2ccc(-c3nnc4n3CCC4)cc2)cc1`, the “activity change, negative = inhibition” value was inactive: 21.4%. For `C[C@]12N[C@H](Cc3ccccc31)c1ccccc12`, the Potency was “inactive”. For `O=C(NNc1ccccc1)c1ccc(Cl)c(Cl)c1`, the Potency was inconclusive [inhibitor, single point]. With `CCN(C(=O)CN1C(=O)/C(=C/c2ccccc2F)SC1=S)C1CCS(=O)(=O)C1` (stereo not given) the “activity change, negative = inhibition” value was inactive: -1.07%. With `CC(C)[C@H](N)C(=O)OCCOCn1cnc2c(=O)[nH]c(N)nc21` the Potency was active: 0.501 µM. For `CCc1cc(=O)oc2cc(C)cc(OCC(=O)N[C@@H](CSCc3ccccc3)C(=O)O)c12`, the “activity change, negative = inhibition” value was inactive: 2.99%. In the case of `COc1ccc2[nH]c(C)c(CCNC(=S)Nc3cccc(C)c3C)c2c1`, the Potency is reported as inconclusive [inhibitor, partial curve]. In the case of `CCN1/C(=C2\C(=O)N(C)C(=S)N2C)C=Cc2ccccc21`, the “activity change, negative = inhibition” value is reported as inactive: -5.81%. For `NC1=C(Br)C(=O)c2ccccc2C1=O`, the Potency was inconclusive [inhibitor, single point]. In the case of `CN(C1CCCCC1)S(=O)(=O)c1ccc(C(=O)N2CCN(c3nc4ccccc4s3)CC2)cc1`, the Potency is reported as inconclusive [inhibitor, single point]. For `OCc1ccccc1OCCOc1ccc(Cl)c2cccnc12`, the Potency was inconclusive [inhibitor, single point]. For `COc1cccc(OC)c1Nc1nc(C)nc2c1nnn2Cc1ccccc1Cl`, the “activity change, negative = inhibition” value was inactive: -0.591%. For `O=C(CC(SCCO)c1ccc([N+](=O)[O-])cc1)c1ccco1` (stereo not given), the Potency was inconclusive [inhibitor, single point]. With `N/C(=N\OC(=O)N1CCOCC1)c1ccccc1` the “activity change, negative = inhibition” value was inactive: -19.4%. In the case of `Cc1nc(N2CCN(Cc3ccc4c(c3)OCO4)CC2)c2oc3ccccc3c2n1`, the “activity change, negative = inhibition” value is reported as inactive: -8.14%.
